This is one part of the list.
These sequences were tested on PfSIP2 AP2 domain 1 (GST-tagged) (assay: gcPBM binding intensity (ln(normalized median fluorescence intensity)); higher = stronger DNA binding).
How it was run: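 GST-tagged P. falciparum DNA-binding domains, expressed in E. coli (about 25 μg on average), were applied for 1 h to an Agilent 4 × 180k array of primer-extended double-stranded 36-bp intergenic genomic probes plus negative controls. The binding buffer was 1× PBS with 1% milk, 0.2 mg/ml BSA, 0.5% salmon testes DNA and 0.03% Triton X-100. Bound protein was detected with Alexa488 anti-GST antibody and scanned at 488 nm. Binding intensity is the highest Masliner-normalised natural-log median intensity across replicate spots of either probe orientation.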

| Sequence | gcPBM binding intensity (ln) |
| --- | --- |
| TTTATTTAATTATGTTGTACATGTAGGATTTATTTT [XGTACX_site7078] | 6.98 |
| AAAAAGGAAATAATAACACACATTAATAATTATAAA [CACACA_site3401] | 6.67 |
| TAAAAAGTTATATTCACACACATACACATATAAATA [CACACA_site6398] | 6.88 |
| GTTAAAAAAAGGAGAGATCTCACACAAATATATATA [GTGCAC_negctrl_site117] | 7.28 |
| AATATATATGAAAAAAGTACTCAAGGAATAAAAAAA [XGTACX_site7720] | 6.68 |
| ATGATAAATATAAGTTGTACATATATCTATGTGCAT [XGTACX_site6010] | 7.02 |
| CATAAATACTATATATGTACGTAATTTTTAAAACAT [XGTACX_site7710] | 7.3 |
| CATTTAATAATAACAAGTACACAAAGATGTATAACA [XGTACX_site8315] | 7.28 |
| GGGTGCCAAATTAGCACACACATATATACCTGAATT [CACACA_site5551] | 8.5 |
| TTACAAATAATTTGTTGTACGCTTTTTTTCTTTTTT [XGTACX_site7199] | 7.82 |
| TATATATATATATATGTGCGCATTACTTTAAGAATA | 9.3 |
| TTTTTTTTTATTTGTTGTACGAGGTTTTAAAATTTT [XGTACX_site106] | 7.15 |
| ACAATATCTAGATACACACACATATCTCTCAATCTA [CACACA_site656] | 7.04 |
| TATAATATTCTATATGCATGTACACCATTCTTTATT [TGCATGCA_site688] | 7.23 |
| TATTGTTATCTTTTATGTACTTAAAAAAATAAATTT [XGTACX_site4233] | 7.24 |
| AAAAAGGTTATTGGTACACACATATGTATATAAATA [CACACA_site6402] | 7.07 |
| TAATAAAACATATATACACACATTATATATACATAT [CACACA_site8495] | 6.98 |
| GTAGGCATTAAAAAATGTACAAAATATTATGAATTG [XGTACX_site1615] | 6.85 |
| TATAATATATTCATGTGTACATATATTTCGAACATA [XGTACX_site1754] | 7.23 |
| ATAAATATTGCGTGCACACACATAATATTTATATAT [CACACA_site7136] | 8.7 |
| CGAAAAATATGTATGAGTACTTATATTTAAACTATA [XGTACX_site1911] | 6.86 |
| CATTCCTATTATTATACACACAAATTAAGAATTCAA [CACACA_site787] | 6.98 |
| ATGTCATAAAAACATATACACACTTGAAATATAAAA [CACACA_site2329] | 6.94 |

| Sequence | gcPBM binding intensity (ln) |
| --- | --- |
| ATTTTTTTGTTAATTTGTACATAAAATTTTATTTTA [XGTACX_site7007] | 7.25 |
| ATATTTATTTTATAAAGTACTAAAAAATATATTATA [XGTACX_site8522] | 6.9 |
| AAAAAAAAAAAAAAAACACACAAACGCTTTTTTTTT [CACACA_site4545] | 7.54 |
| GGATAAGAGGCATATACACACAATTTAAAAAAATAA [CACACA_site4657] | 7.15 |
| TATATTTATACTTATACACACATTATTGAATTAACC [CACACA_site934] | 7.18 |
| ATTATTTATATTTGGAGTACTTATAATATTTTTATA [XGTACX_site1289] | 7.24 |
| AGTGTAAGCTAAGTGGTGCGTTGAATAAGGTTTTTT [GTGCAC_site9951] | 8.75 |
| TATAGGTATTTGTATACACACAAATGTATATATCTA [CACACA_site6713] | 6.81 |
| AAAATATTTATTCCTAGTACTTACCATTATATATAT [XGTACX_site363] | 7.7 |
| AAAAAAAAATGAAAAGAAAAAAAAAGAAAAAAGGGA [CACACA_negctrl_site287] | 6.9 |
| CTTTATATATTTTATTGTACTTAAAAAAAAAAAAAA [XGTACX_site2134] | 7.39 |
| AAAAAATATGCATATACACACATATGTATAAATAAC [CACACA_site7090] | 7.17 |
| AAAAAAAAAAAAAACACACACACACGCATACACATA [CACACA_site7364] | 7.61 |
| AAGAGGATACACAATGTGCACTTTTTTTTTTTTTTT [GTGCAC_site9415] | 10.5 |
| TATACAGATATATATACACACATATATATAAATACA [CACACA_site4383] | 7.09 |
| ATAAATAAAACAAATAGTACAATATAAAAAAAAAGG [XGTACX_site87] | 7.36 |
| TATATATATAATATATGTACTCATATTAAGAGATAC [XGTACX_site1354] | 8.28 |
| AATGAGCTTTTTAAAAGTACTAAATATAAATAAATA [XGTACX_site3632] | 6.74 |
| TATATATGTATATTTTGTACGTATTTATTTACATGA [XGTACX_site4584] | 6.75 |
| AATAGTTGCTAAAGGTGTACAATACATTTATTAGAA [XGTACX_site2773] | 7.19 |
| TATTACTTAAATAAAAGTACATATAACATTTTAGTT [XGTACX_site196] | 6.95 |
| TCTTTGGTATTTACATGTACATATTCTTAAAAACAT [XGTACX_site3124] | 7.4 |
| TGTATAGTCTAAAGTTGTACAAAAAAAAAAAAAAAA [XGTACX_site5764] | 7.05 |

| Sequence | gcPBM binding intensity (ln) |
| --- | --- |
| GAAAATAAAATATTAGTGCATTATTTGATCAATAAT | 8.23 |
| GTTAATATTTTTGGGGGTACTTAAAAAAAAAAAAAA [XGTACX_site1477] | 7.78 |
| AATTTAAAAAATAATTGTACAAAAAAAAAAAATCAG [XGTACX_site4576] | 7.27 |
| TTACATACAATTGGTGTGCACATATATATATATATA | 9.93 |
| CAAAAGGATAGGCACACACACACACCGATATATATA [CACACA_site8685] | 7.38 |
| GAATATTAATTCAAGTGTACAAATATATATATAATT [XGTACX_site5103] | 7.13 |
| TAATAAGGAATTTATAGTACATATTCATATGTTTTA [XGTACX_site2331] | 6.66 |
| ATAATATAAATATACACACACACATATATATATATA [CACACA_site2905] | 9.19 |
| ATAAAAATTTATATATGTACTTAATTTTTAATTTTT [XGTACX_site7482] | 6.96 |
| TATGTTTTTGAATGAGTGCATTAAAATAAAACATTT | 8.97 |
| TTCTTGTATATTCATAGTACATATAATGTCGTGTTA [XGTACX_site8991] | 7.13 |
| AAATAAAGAAATGCAAGTACATACTAAACTAATCCA [XGTACX_site1209] | 6.72 |
| TCTTAAATTATGATAAAATATAATAAATAAATAAAT [CACACA_negctrl_site1520] | 6.71 |
| ATATATATTATAATCTGTACATAAATATATAATAAA [XGTACX_site5425] | 7.29 |
| TTGTTTTATACATAGTGTACATATAAAAATTTTTTT [XGTACX_site7549] | 7.28 |
| ATTTTCCCTAGAATATGTACACATAGTAAATATTAT [XGTACX_site7499] | 6.93 |
| ATATATAAATATGAAACACACATTCTATTTAATTCG [CACACA_site1450] | 6.89 |
| CAGATAAATAAACACACACACACATATATATATATA [CACACA_site9311] | 9.68 |
| TATGTTTCTATATATACATGCAAGAAGAAATGTACT [TGCATGCA_site891] | 7.1 |
| AAAAAAAAAAAAGAAAAATATATATATAAATAAATA [GTGCAC_negctrl_site569] | 6.98 |
| ATATGTACAAATTATACACACATGTACAATTATATA [CACACA_site1253] | 7.32 |
| ATGTCACAATTTTTCACACACAAAATTTATATACAT [CACACA_site2030] | 7.29 |
| AATTATACTCACGTTACACACACACTAGATATATAT [CACACA_site6133] | 7.28 |

| Sequence | gcPBM binding intensity (ln) |
| --- | --- |
| TTTTTTTTTTTTTTTTGTACATATATATAAAAAATA [XGTACX_site2772] | 7.02 |
| TAATATTACATTTATTGTACTTTGTTTTTATTTTAT [XGTACX_site1605] | 6.81 |
| CCCACAATGGTTTATATACACACTGTTGCAAATTCT [CACACA_site3066] | 7.01 |
| ATTGAAAAAATACAATGTACATAGTAATACAAAGAA [XGTACX_site4142] | 7.33 |
| TGTTTCTAAGAATTTACACACAAAATATTTCTACAT [CACACA_site7846] | 6.86 |
| TAATACTTAATGAACACATGCACATATACATAGTAT [TGCATGCA_site496] | 8.03 |
| TTAAAAATTAAAAGTAGTACATATAATATAAACATT [XGTACX_site424] | 6.98 |
| AAAAAAAAAAATTGCACACAAAAAAAAAAAAAAAAA [CACACA_site2073] | 7.33 |
| ATAATTATACAAAAGCGTACACGATATAAATCTACG [XGTACX_site8115] | 7.5 |
| CTTAAATCCATAATATGTACTTAAAAAGAAAAAATA [XGTACX_site4765] | 7.06 |
| AGACAATTTTTTAGTACACACATATAGATATATAAA [CACACA_site6832] | 7.39 |
| TTATAAAAAAAAAAAAAAAAAAAAACCAATATAATA [CACACA_negctrl_site968] | 6.63 |
| TTTATTCTAAAATATTAAAAATGATTTGTTTTTTCA [CACACA_negctrl_site1751] | 6.55 |
| GTATTATAAAAAGGAAGTACATATATACATATTATA [XGTACX_site1271] | 6.98 |
| ATATGAACATTAAAAAAGTAAGGTATTCTCCCCTCT [CACACA_negctrl_site1299] | 6.83 |
| CATATCAAAAAAAAATGTACACGTATATACAATACA [XGTACX_site2660] | 6.95 |
| TTTTAAAATAAAAAAATAAAAAAAGGGGAAAAAAAA [CACACA_negctrl_site847] | 6.67 |
| ATATACTTATATATTGCACACATCTAATATTTTGAA [CACACA_site3165] | 7.15 |
| TATAATATGTTTGATGGTACACGTAAACACCTTGCA [XGTACX_site1643] | 7.01 |
| ATAACTAAATTATATTGTACAAAATAATTATATATT [XGTACX_site1188] | 6.91 |
| TTTAATCAACAAAATCTACACACTAATATGAAATAT [CACACA_site9250] | 6.87 |

From the supplement of paper PMC11417369
